Measurements as given in PubChem BioAssay AID1347073 (National Center for Advancing Translational Sciences (NCATS), 2019).
Hit rate of the full screen: of about 45,000 compounds, about 200 (0.44%) were called active. Not shown: some 7% with an inconclusive outcome. Calls follow the shape of the dose curve; as a rule, active = well fitted activation curve with a large enough effect; inconclusive = small, poorly fitted or top-dose-only effect; inactive = no such curve, though single readings can be large or run the other way. The list shows a part of the results.

Assay: qHTS of TDP-43 Inhibitors: NCGC Sytravon Library Screen; also: 0% is about no effect; nearly all actives have a fitted effect of over 55% in size
Settings: yeast TDP-43 toxicity rescue, BacTiter-Glo growth, 24 h; series mostly up to 46.1 µM; growth rescue (activation): at the top concentration
Excerpt: The goal of this project is to identify new chemical probes capable of reversing the toxicity associated with TDP-43 which is associated with frontotemporal lobar degeneration and amyotrophic lateral sclerosis. These compounds will provide a complementary approach to deciphering the tangled mechanisms of toxicity and protection that we have uncovered through genome-wide genetic screens and are beginning to uncover in a large-scale proteomics analysis with mass spectroscopy. To this end, a miniaturized assay was developed to be screened against the Molecular Libraries Small Molecule Repository (MLSMR) to discover TDP-43 inhibitors. Please note that in the set-up this yeast-based assay compounds that inhibit as TDP-43, have a read-out as activators. NIH Chemical Genomics Center [NCGC] NIH Molecular Libraries Probe Centers Network [MLPCN] Assay Submitter (PI): Susan Lindquist, Whitehead Institute/MIT MLPCN Grant: R21 NS060957
Dispense 2.5 microL yeast galactose medium per 1536-well plate, pin compound, dispense 2.5 microL TDP-43 expressing yeast in galactose medium at OD600=0.02 (pregrown in raffinose medium to mid-log phase) per well, incubate for 24 hr at 30 deg C, and cell growth will be measured using 5 microL of Bactiter/Glo reagent to entire plate and read using Luminescence Protocol in ViewLux.

SMILES	growth rescue (activation)
Cc1c(CC(=O)O)c(=O)oc2c(C)c3occ(-c4ccc(Br)cc4)c3cc12	inactive: 6.15%
